Results taken from PubChem BioAssay AID493208 (National Center for Advancing Translational Sciences (NCATS), 2011).
Hit rate of the full screen: of about 44,000 compounds, about 340 (0.77%) were called active. Not shown: some 5% with an inconclusive outcome. Calls come from the whole dose curve; as a rule, active = well fitted inhibition curve with a large enough effect; inconclusive = small, poorly fitted or top-dose-only effect; inactive = flat fitted curve, though single readings scatter. Some of the results follow.

Test: Acumen qHTS Assay for Inhibitors of the mTORC1 Signaling Pathway in MEF (Tsc2-/-, p53-/-) Cells: Sytravon;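 note: plate controls were DMSO for no effect and rapamycin for full effect; nearly all actives have a fitted effect of over 50% in size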
Conditions: phospho-rpS6 immunofluorescence/PI, 24 h; series mostly up to 38.3 µM; activity change, negative = inhibition: at the top concentration
How it was run: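 Tsc2-/-, p53-/- MEFs (empty-vector stable line) in DMEM + 10% FBS were treated with compounds 24 h at 37 degree Celsius, fixed, and immunostained for phospho-rpS6 (Alexa-488) with propidium iodide counterstain. Laser-scanning cytometry gave % positive cells, normalized against 7.5 nM rapamycin and DMSO.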

Activity change, negative = inhibition, inactive:
COc1ccc(OCC(=O)Nc2ccccc2C(=O)OCc2cc(=O)n3nc(C)sc3n2)cc1 0%
COc1cc(-c2nc(-c3cccc(Cl)c3)c(-c3ccccc3)[nH]2)cc(OC)c1OC -3.64%
COC(=O)c1ccc(CSc2nc3c(c(=O)[nH]2)CCC3)cc1 0.189%
CCc1ccccc1NC(=O)Cn1c(=O)n(Cc2ccco2)c(=O)c2sc3ccccc3c21 5.04%
Cc1ccc(NC(=O)Cn2c(=O)n(Cc3ccc4c(c3)OCO4)c(=O)c3ccccc32)c(C)c1 0.604%
Cc1ccc(C)c(N2CCN(S(=O)(=O)c3cnc(N)nc3)CC2)c1 -16%
Cc1ccc2nc(N3CCN(c4cccc(C)c4C)CC3)c3nncn3c2c1 -6.21%
CCOC(=O)c1ccc2c(c1)N(Cc1ccccc1)C(=O)c1ccccc1S2 8.7%
CC(C)CCn1c(=O)c2sccc2n2c(CCCC(=O)NC3CCC(C)CC3)nnc12 (stereo unspecified) -3.75%
CCCCc1ccc(NC(=O)CSc2nc3ccccc3nc2N2CCOCC2)cc1 3.31%
COc1ccc(CCNC(=O)CCSCc2ccccc2Cl)cc1OC 9.67%
O=C(NCCS(=O)(=O)N1CCN(c2ccc(F)cc2)CC1)C1CC(=O)N(c2ccc(F)cc2)C1 (stereo unspecified) 0.624%
CCCCOc1ccc(S(=O)(=O)n2nc(C)c(S(=O)(=O)N3CCC(C)CC3)c2C)cc1 -0.313%
Cc1ccn2c(Nc3ccc4c(c3)OCO4)c(-c3ccc(O)cc3)nc2c1 -0.682%
CCCOC(=O)C(C)n1nnc2sc(-c3ccccc3)cc2c1=O (stereo unspecified) 4.39%
CCCN1CCN(c2ncnc3sc(C(=O)Nc4ccc(N(CC)CC)cc4C)c(C)c23)CC1 1.08%
COc1cccc(CNS(=O)(=O)c2cc(Br)cc3c2N(C(C)=O)C(C)C3)c1 (stereo unspecified) -2.04%
COc1cccc(CC(=O)NCc2ccc3c(c2)CCN3C(C)=O)c1 2.53%
CCc1ccccc1NC(=O)C1CCN(c2nn3c(=O)cc(C)nc3s2)CC1 -0.564%
CN(C)S(=O)(=O)Nc1ccc(-c2cn3ccsc3n2)cc1 3.93%
Cc1ccc2oc(C(=O)Nc3ccc(S(=O)(=O)N(C)Cc4ccccc4)cc3)cc(=O)c2c1 6.04%
Cc1cccc(Cc2cnc(NC(=O)c3ccc4c(c3)CC(c3ccccc3)OC4=O)s2)c1 (stereo unspecified) -3.99%
CCc1ccc(-n2c(=O)c3c4c(sc3n(CC(=O)NCCCOC)c2=O)CCC4)cc1 -12.4%
Cc1ccc(-n2nc(C(=O)N3CCN(c4ccccc4)CC3)c(=O)n(C)c2=O)cc1 0.899%
Cc1ccccc1Cn1c(C)c(CNCc2ccccc2)c(C(=O)O)c1C -3.72%
CC(NC(=O)c1ccc2nc(CCc3ccccc3)oc2c1)c1ccccc1 (stereo unspecified) -2.21%
COc1ccc(NC(=O)c2nc(SCc3ccccc3F)ncc2Cl)cc1 4.03%
O=C(NCCc1ccc(Cl)cc1)c1ccc2c(c1)N(Cc1ccccc1)CCS2 1.89%
Cc1ccc(C)c(NC(=O)CCc2c(C)n(C)c3cc(-c4ccccc4C)nn3c2=O)c1 0.707%
COc1ccc(NC(=O)CN(C)S(=O)(=O)c2ccc3[nH]c4c(c3c2)CCCC4)cc1OC 0.207%
CC(C)c1ccc(C2=CC(c3cccc(Cl)c3)n3ncnc3N2)cc1 (stereo unspecified) -0.919%
Cc1ccc(NC(=O)CCS(=O)(=O)c2cccc3nonc23)c(C)c1 1.01%
CCCN1C(C(=O)c2ccccc2)=C(OC(=O)c2ccc(F)cc2)c2ccccc2S1(=O)=O -7.84%
Cc1ccc(C)c(Cn2c3ccccc3c3cnn(CC(=O)N4CCCCC4)c(=O)c32)c1 -6.44%
CCOc1ccc(NC(=O)Cn2c(CCC(=O)O)ccc2-c2ccc(Cl)cc2)cc1 -7.89%
COc1ccc(Cl)cc1NC(=O)c1cc(S(=O)(=O)N2CCc3ccccc32)cn1C 3.18%
Cc1cccc(-n2c(=O)c3ccccc3n(Cc3ccccc3C#N)c2=O)c1 4.28%
Cc1nn(CCC(=O)NC(C)C)c(=O)c2nn(-c3ccccc3)c(C)c12 -7.52%
O=C(CSc1nc2c([nH]c3ccccc32)c(=O)n1-c1cccc(Cl)c1)N1CCc2ccccc21 3.67%
COc1cccc(Cc2nc3ccccc3nc2SCC(=O)N2CCCCC2C)c1 (stereo unspecified) 1.15%
Cc1ccc2nc(NCc3ccccc3Cl)c3nnnn3c2c1 -17.1%
COc1cccc(C(=O)CN2CCN(S(=O)(=O)c3ccc(Cl)cc3)CC2)c1 5.03%
COc1cc2ccccc2cc1C(=O)Nc1ccc2oc(-c3cc(Br)ccc3Cl)nc2c1 -3.25%
CCOc1ccccc1NC(=O)c1sc2nc3c(cc2c1N)CN(Cc1ccccc1)CC3 -15.1%
O=C(CN1C(=O)CSc2ccc(S(=O)(=O)N3CCCCC3)cc21)NCc1ccc(F)cc1Cl 0%
O=C(NCc1ccco1)c1ccc2c(c1)N(Cc1ccc(F)cc1)C(=O)c1ccccc1S2=O (stereo unspecified) -14.5%
COc1cc(NC(=O)CCc2c(C)n(C)c3cc(-c4ccccc4C)nn3c2=O)cc(OC)c1OC -0.588%
CC(=O)c1ccc(NC(=O)Cn2c3ncccc3c(=O)n2-c2ccc(C)cc2)cc1 -21%
COc1ccc(NC(=O)c2cnc(SCC(=O)Nc3nc4ccc(C)cc4s3)n(C)c2=O)cc1 0.194%
O=C(c1ccco1)c1cn(CCOc2ccc(Cl)cc2)c2ccccc12 2.94%
Cc1ccc(-c2noc(CSc3nnc(-c4ccc(Cl)cc4)n3C)n2)cc1 -0.282%
Cc1cccc(C(=O)NCC(c2ccc3c(c2)OCO3)N2CCOCC2)c1 (stereo unspecified) -5.37%
O=C(c1cccs1)N1CCCc2cc(NS(=O)(=O)c3ccc(Cl)cc3)ccc21 0%
COc1ccc(C(CNC(=O)c2ccc(C)cc2)N2CCOCC2)cc1 (stereo unspecified) 0.742%
CCC(=O)N1CCc2cc(CNC(=O)Nc3ccc(OC)cc3OC)ccc21 -14.1%
O=C(CSc1nccn1Cc1ccccc1)NC1CCCC1 6.54%
Cc1cccc(-c2noc(-c3ccc(N4CCCC4)c([N+](=O)[O-])c3)n2)c1 -0.0566%
COc1ccc(NC(=O)C2CCN(S(=O)(=O)c3c(C)noc3/C=C/c3ccco3)CC2)cc1 -2.04%
CCN(C(=O)CN(C)S(=O)(=O)c1ccc2c(c1)n(C)c(=O)c(=O)n2C)c1cccc(C)c1 -22.9%
CCN(CC)C(=O)c1sc(NC(=O)C2c3ccccc3Oc3ccccc32)c(C(=O)OC(C)C)c1C -1.46%
CN(C)c1ccc(C(CNS(=O)(=O)c2cc(F)ccc2F)N2CCOCC2)cc1 (stereo unspecified) 15.6%
O=C(CSCc1ccc(F)cc1)N1CCN(c2ccccc2)CC1 7.78%
Cc1cc(C)c(Cn2c(=O)n(CCCCCC(=O)NCc3ccc4c(c3)OCO4)c(=O)c3sccc32)c(C)c1 0.084%
COc1cccc(NC(=O)Cn2c(=O)n(-c3cccc(OC)c3)c(=O)c3c4c(sc32)CCCC4)c1 -0.831%
COc1ccc(NS(=O)(=O)c2ccc3[nH]c4c(c3c2)CCCC4)c(OC)c1 -7.69%
CCOc1ccc(Nc2nc3ccccc3c3nnc(CC)n23)cc1 0.542%
Cc1ccc(CN(C(=O)c2ccccc2Br)C2CCS(=O)(=O)C2)o1 (stereo unspecified) 0.637%
CC1CCC(NC(=O)c2ccc3c(c2)N(Cc2cccc(Cl)c2)C(=O)c2ccccc2S3=O)CC1 (stereo unspecified) -0.0113%
O=C(NCc1ccc(Cl)cc1)C(=O)Nc1cccc(Br)c1 -3.63%
Cn1c(=O)c2c(SCC(=O)NCc3ccco3)nc(-c3ccccc3F)nc2n(C)c1=O -0.983%
CCOc1ccccc1NC(=O)COc1cccc2c(=O)n(CCOC)ccc12 -5.45%
COc1ccc(NC(=O)CC2C(=O)N(c3ccccc3)C(=O)N2Cc2cccnc2)cc1 (stereo unspecified) -7.14%
COc1cccc(-n2c(=O)c3c4c(sc3n(Cc3ccc(F)cc3Cl)c2=O)CCCC4)c1 -2.53%
O=C(CCCc1nc(-c2ccco2)no1)Nc1ccccc1[N+](=O)[O-] -18.4%
CCOC(=O)c1ccc(NC(=O)c2c(C)oc3nc(C)nc(N4CCCC4)c23)cc1 5.95%
CC(=O)Nc1c(C(=O)Nc2cccc(C)c2)nnn1-c1ccc(C)cc1 -6.15%
CCC1CCCCN1S(=O)(=O)c1ccc(N2CCCCS2(=O)=O)cc1 (stereo unspecified) 9.57%
COc1ccc(-c2[nH]ncc2C(=O)NCc2cccc(F)c2)cc1 -0.422%
Cc1ccc(-n2nc(-c3ccc(F)cc3)c3cnc4cc5c(cc4c32)OCO5)cc1C -14.8%
CCc1ccc(NC(=O)CC(c2ccc(C)cc2)N2Cc3ccccc3C2=O)cc1 (stereo unspecified) -0.313%
COCCNC(=O)c1ccc2nc(CCc3ccccc3)oc2c1 -4.54%
Cc1ccc(Cl)cc1N1CCN(C(=O)CCSCc2ccccc2F)CC1 5.43%
COc1ccc(NC(=O)c2oc3ccc(S(=O)(=O)N(C)C4CCCCC4)cc3c2C)cc1Cl 1.96%
CCc1ccc(-c2cc(C)no2)cc1S(=O)(=O)N1CCN(c2cccc(Cl)c2)CC1 -16.2%
Cc1c(C(=O)Nc2ccc(Br)cc2F)oc2ccc(S(=O)(=O)N3CCC4(CC3)OCCO4)cc12 6.19%
Cc1ccc(CCNC(=O)c2sc3ncccc3c2-n2c(C)ccc2C)cc1 -3.02%
CC1CCCCN1c1c(S(=O)(=O)c2ccc(Cl)cc2)cnc2ccccc12 (stereo unspecified) -8.1%
CCC(=O)Nc1ccc(CC)cc1-c1nc2ccccc2n(CC(=O)Nc2cccc(OC)c2)c1=O -3.62%
COc1cccc(C2=CC(c3ccccc3F)n3ncc(C(=O)Nc4ccc(C)cc4)c3N2)c1 (stereo unspecified) -16.3%
Cc1cc(C)cc(-n2ccnc(NCCc3ccccc3)c2=O)c1 -0.342%
COc1ccc(-c2nc(CS(=O)CC(=O)NCCc3ccccc3)c(C)o2)cc1OC (stereo unspecified) 0.226%
Cc1ccc(Cl)cc1-n1nnc(-c2nsc(NC(=O)c3ccccc3Cl)n2)c1C 0.889%
CCn1cc2nc(SCc3cccc(C(F)(F)F)c3)n(Cc3ccc(Cl)cc3)c(=O)c2n1 -6.19%
COc1ccc(OC)c(NC(=O)CCCc2nnc3n(C(C)C)c(=O)c4sccc4n23)c1 -12.4%
Cc1ccc2oc(C(=O)Nc3ccc(S(=O)(=O)N4CCCC(C)C4)cc3)cc(=O)c2c1 (stereo unspecified) -2.7%
CCc1ccc(-n2c(=O)c3ccccc3n(CC(=O)NCCc3ccc(OC)c(OC)c3)c2=O)cc1 -4.02%
